Screen size: about 220,000 compounds; about 2,300 (1%) were called active. Inconclusive results, whose numbers are uncertain, are shown with a selection of clear calls. Calls follow the shape of the dose curve; as a rule, active = well fitted inhibition curve with a large enough effect; inconclusive = small, poorly fitted or top-dose-only effect, or effect the other way; inactive = no such curve, though single readings can be large or run the other way. No potency is given beside an inconclusive call; the fits are too rough.
Target: Neuropeptide S receptor (Homo sapiens) (UniProt Q6W5P4)
Sequence of UniProt Q6W5P4 (Q6W5P4 whole entry, looked up): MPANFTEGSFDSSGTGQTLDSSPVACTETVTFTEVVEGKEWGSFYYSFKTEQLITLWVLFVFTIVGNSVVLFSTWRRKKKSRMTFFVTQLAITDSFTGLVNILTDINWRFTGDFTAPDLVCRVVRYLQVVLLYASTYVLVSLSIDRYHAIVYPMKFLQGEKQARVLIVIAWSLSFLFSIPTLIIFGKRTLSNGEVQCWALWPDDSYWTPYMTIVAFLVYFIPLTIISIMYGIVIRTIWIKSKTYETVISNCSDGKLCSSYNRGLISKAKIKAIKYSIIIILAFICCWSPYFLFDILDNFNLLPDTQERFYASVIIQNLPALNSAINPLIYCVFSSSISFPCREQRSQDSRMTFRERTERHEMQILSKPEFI
Test: qHTS Assay for Antagonists of the Neuropeptide S Receptor: cAMP Signal Transduction; also: nearly all actives have a fitted effect of over 50% in size
Conditions: CHO-NPSR cells, cAMP TR-FRET, antagonist mode; series mostly up to 38.3 µM
Potency is read from the fitted curve at half-maximal effect; tags tell the direction and shape of the fitted curve.

| SMILES | Potency |
| --- | --- |
| Fc1ccc(Cn2nnnc2C(c2ccc(Cl)cc2)N2CCSCC2)cc1 (stereo not given) | inconclusive [inhibitor, partial curve] |
| CCN(CC)c1ccc(C2C3CCCCC3(O)CCN2CC(=O)Nc2ccccc2)cc1 (stereo not given) | inconclusive [inhibitor, single point] |
| Cc1ccc(N(CC(O)Cn2c3ccccc3c3ccccc32)S(C)(=O)=O)cc1 (stereo not given) | inconclusive [inhibitor, single point] |
| COc1cccc(-c2nc(-c3ccccn3)no2)c1OC | inactive |
| COc1ccccc1-c1nc(C#N)c(N2CCc3ccccc3C2)o1 | inconclusive [inhibitor, full curve] |
| COc1cccc(-c2nn(C)c3sc(C(=O)NCc4ccco4)cc23)c1 | inconclusive [inhibitor, single point] |
| CCN1C(=O)C(CC(=O)Nc2ccc(OC)cc2)N(CCc2ccccc2F)C1=S (stereo not given) | inactive |
| CCc1ccc(NC(=O)N(CCCN2CCOCC2)C(C)c2cc3cccc(OC)c3o2)cc1 (stereo not given) | inconclusive [inhibitor, full curve] |
| NC(=O)c1cc[n+](CC2=C(C(=O)O)N3C(=O)[C@@H](NC(=O)[C@@H](c4ccccc4)S(=O)(=O)[O-])[C@H]3SC2)cc1 | inactive |
| Cc1c(N=Cc2cccnc2)c(=O)n(-c2ccccc2)n1C | inconclusive [activator, full curve, poor fit] |
| CCCN(CCC)C(=O)CSc1nc2n[nH]c(C)c2c(=N)n1-c1ccc(OC)cc1 | inconclusive [inhibitor, partial curve] |
| CCCC(=O)NCc1cc(-c2nn(C)c(=O)c3ccccc23)ccc1C | inactive |
| CCOC(=O)C(=O)N1c2ccccc2C(N(C(=O)C(=O)OCC)c2ccccc2)CC1C (stereo not given) | inconclusive [inhibitor, single point] |
| COc1ccccc1-n1cc(C(=O)NCC(=O)N2CCN(c3ccccc3)CC2)c2ccccc2c1=O | inconclusive [inhibitor, single point] |
| CN(C)/C=C1\Cc2ccccc2C1=O | inactive |
| Cc1[nH]c2ccccc2c1/C=N/Nc1nc2ccccc2[nH]1 | inconclusive [inhibitor, single point] |
| Brc1ccc(-c2nc3ccccc3s2)s1 | active: 12.6 µM |
| Oc1ccc(-c2nnc(Nc3cccc(O)c3)c3ccccc23)cc1 | inconclusive [inhibitor, single point] |
| O=C(NCc1ccccn1)c1cc(Br)ccc1Cl | inactive |
| Nc1c(N2CCN(c3ccccc3)CC2)c2ccccc2oc1=O | inconclusive [inhibitor, single point] |
| Nc1nnc(-c2ccc(Cl)c(Cl)c2)s1 | inactive |
| CCC(C)n1c(SC(C)C#N)nc2ccccc2c1=O (stereo not given) | inactive |
| O=C(NCCc1ccccc1)c1c(F)cccc1F | inactive |
| O=C(Nc1ccc(N2CCOCC2)c2nonc12)C1CCCC1 | inactive |
| CC(C)CCn1nnnc1C(c1ccc(N(C)C)cc1)N1CCN(C(=O)c2ccco2)CC1 (stereo not given) | inconclusive [inhibitor, single point] |

| SMILES | Potency |
| --- | --- |
| COc1ccc(-c2ccc([C@H]3[C@@H]4C=CCC[C@@]4(C)C(=O)N3Cc3ccccc3)c(F)c2)cc1OC | inconclusive [inhibitor, single point] |
| O=C(Nc1cccc2ccccc12)OC1C=CS(=O)(=O)C1 (stereo not given) | inactive |
| O=[N+]([O-])c1ccc(C(=S)N2CCN(c3ccc(F)cc3)CC2)cc1 | inactive |
| Cc1ccc(NNS(=O)(=O)c2ccc(C)cc2)cc1 | inactive |
| Cc1ccc(NC(=O)CSc2nc(NS(=O)(=O)c3ccc(C)cc3)cc(=O)[nH]2)cc1 | inactive |
| O=C(Nc1cccc2ccccc12)/C(Cl)=C/c1ccccc1 | inconclusive [inhibitor, single point] |
| CCN1C(=O)CC(N2CCN(c3ccc(C(=O)c4ccccc4)cc3)CC2)C1=O (stereo not given) | inconclusive [inhibitor, partial curve] |
| COc1ccc(/C(O)=C2/C(=O)C(=O)N(CCCN(C)C)C2c2ccccc2)cc1OC (stereo not given) | inconclusive [activator, partial curve] |
| CC(C)c1ccc(Nc2nc(NCc3ccco3)nc(N3CCOCC3)n2)cc1 | inconclusive [inhibitor, partial curve] |
| Cc1ccc(/C=C/C(=O)N2CCN(Cc3ccccc3)CC2)o1 | inactive |
| CC(C)(C)c1ccc(-c2nc(C#N)c(NCCCn3ccnc3)o2)cc1 | inconclusive [inhibitor, single point] |
| O=C(Nc1ccc(Cl)cc1)Nc1ccccc1NS(=O)(=O)c1cccs1 | inactive |
| Cc1ccccc1NC(=O)/C(=C/c1ccccc1)c1ccccc1 | inconclusive [inhibitor, single point] |
| Cc1cc(C)nc(Nc2nc(C)c3cc4c(cc3n2)OCO4)n1 | inactive |
| COc1ccc(-c2cn(-c3ccc(C)cc3)c(=O)n2CC(=O)Nc2ccc(OC)cc2OC)cc1 | inconclusive [inhibitor, single point] |
| COCCOC(=O)c1c(C)oc2ccc(O)c(CN3CCC(C)CC3)c12 | inactive |
| CCN(CC)CCn1c(NC(=O)c2ccc(C(F)(F)F)cc2)nc2ccccc21 | inactive |
| Cc1ccccc1NC(=S)NC(NC(=O)c1ccccc1C)C(Cl)(Cl)Cl (stereo not given) | inconclusive [inhibitor, partial curve] |
| CCn1c(SCC(=O)c2ccc(O)c(O)c2)nnc1-c1ccccc1OC | inactive |
| COc1ccc2c(C)nc(Nc3nc(C)c(C)c(=O)[nH]3)nc2c1 | inconclusive [inhibitor, single point] |
| Cn1c2ccccc2c2c(C(=O)N3CCN(C(=O)c4ccco4)CC3)cn(C3CCCCC3)c(=O)c21 | inconclusive [inhibitor, partial curve] |
| Cc1nnc(NC(=O)CCC(=O)NCc2cccs2)s1 | inactive |
| O=C(Nc1ccc(-c2cn3ccsc3n2)cc1)c1ccc(F)c(S(=O)(=O)N2CCOCC2)c1 | inconclusive [inhibitor, single point] |
| CC(=O)C1=C(O)C(=O)N(CCNCCO)C1c1ccccc1 (stereo not given) | inactive |
| CC(C)CC(O)C1CCN(C(=O)CCc2nnc(-c3ccccc3)o2)CC1 (stereo not given) | inactive |

| SMILES | Potency |
| --- | --- |
| COc1ccc(C)c2sc(=NC(=O)c3cccc(N4C(=O)CCC4=O)c3)n(C)c12 | inactive |
| Cc1cc(C)c(OCC(=O)Nc2ccccc2N2CCOCC2)c(C)c1 | inconclusive [inhibitor, partial curve] |
| Cc1sc2nc(SCc3nc4ccccc4[nH]3)n(Cc3ccco3)c(=O)c2c1C | inconclusive [inhibitor, single point] |
| CCCCC(CCC(=O)O)(C(=O)OCC)c1csc(Nc2ccc(C)cc2)n1 (stereo not given) | inactive |
| S=C(NCC1CCCO1)N1CCN(c2ccccc2)CC1 (stereo not given) | inactive |
| COc1ccc(-c2csc3nc(C)nc(N4CCN(C(C)=O)CC4)c23)cc1OC | inconclusive [inhibitor, single point] |
| O=[N+]([O-])c1ccc(N=NN(CCO)CCO)cc1 | inactive |
| COc1ccc2cc(CN(CCCN3CCOCC3)Cc3nnnn3C3CCCCC3)c(=O)[nH]c2c1 | inconclusive [inhibitor, full curve, poor fit] |
| CCOC(=O)CSc1nc(C2CC2)cc(-c2ccc(F)cc2)c1C#N | inconclusive [inhibitor, partial curve] |
| CCCn1c(SCC(=O)Nc2ccccc2-c2ccccc2)nnc1-c1ccoc1C | inconclusive [inhibitor, partial curve] |
| O=C(CSc1nc(-c2ccco2)cc(C(F)(F)F)n1)N1CCCc2ccccc21 | inconclusive [inhibitor, single point] |
| Cc1ccc(-c2csc(NC(=O)CSc3nc(C)cs3)n2)cc1 | inconclusive [inhibitor, single point] |
| C#CCNC(=O)C1=C[C@H](c2cn(C(C)=O)c3ccccc23)C[C@H](OCc2ccc(CO)cc2)O1 | inactive |
| O=C(CSC(=S)N1CCCCC1)Nc1nc(-c2ccccc2)c(-c2ccccc2)o1 | inactive |
| O=C(N/N=C/c1cc([N+](=O)[O-])ccc1O)NC12CC3CC(CC(C3)C1)C2 | inconclusive [inhibitor, single point] |
| O=C(Nc1cccc(S(=O)(=O)Nc2ccccc2F)c1)c1ccc2ccccc2n1 | inactive |
| CCOC(=O)C1CCCN(C(=O)CCC(=O)Nc2ccc3nc(N4CCOCC4)cc(C)c3c2)C1 (stereo not given) | inactive |
| CC(C)(C)c1ccc(C(=O)N/N=C/c2cccc(Cl)c2)cc1 | inconclusive [inhibitor, single point] |
| CCOC(=O)C1=C(Cc2ccc(OC)cc2)C(=O)c2ccccc2C1=O | inconclusive [inhibitor, single point] |
| CCOc1cccc2c1OC1(C)CC2NC(=O)N1c1ccc(OC)cc1 (stereo not given) | inactive |
| COc1ccc(-c2nc(-c3cccc(C(F)(F)F)c3)no2)cc1OC | inconclusive [inhibitor, single point] |
| CCn1cc(C(=O)NC(C)C23CC4CC(CC(C4)C2)C3)cn1 (stereo not given) | inactive |
| Nc1cccc(/C=C/C(=O)O)c1 | inconclusive [activator, single point] |
| COc1ccc(NC(=S)c2ccncc2)cc1 | inactive |
| O=S(=O)(Nc1ccc(N=Nc2ccc(O)c3ccccc23)cc1)c1ccccc1 | inconclusive [inhibitor, single point] |
